Experimental data: US5786324A, “Synthetic peptides with bactericidal activity and endotoxin neutralizing activity for gram negative bacteria and methods for their use” (priority 1994, dated 1998)
At least one peptide structure holds a part that was inferred or is arguable (an end, a ring closure or a residue). Some compounds share one wording; it may come from a single statement. No end group written: not given here.

What was measured:
[1] = test system: Staphylococcus aureus 502A; type: cell-based
Experimental: (§1) The synthetically produced peptides were assayed for bactericidal activity against Pseudomonas aeruginosa, type 1, P. cepacia ATCC 25608, E. coli B, and Staphylococcus aureus 502A by standard methods.
(§2) Pseudomonas aeruginosa type 1 is a clinical isolate maintained in the laboratory since 1972. The isolate remains a smooth strain and was serotyped by the scheme of Homma. Homma, Jpn. J. Exp. Med., 46:329 (1976). A rough strain E. coli B and S. aureus 502A were obtained from Paul Quie, University of Minnesota. The characteristics of the S. aureus strain have been described in Shinefield et al., Amer. J. Dis. Chil., 105:646 (1963). Pseudomonas cepacia ATCC 25608 was purchased from the American Type Culture Collection in 1980. S. aureus and E. coli were maintained on nutrient agar plates and the Pseudomonas strains were maintained on blood agar plates.
Pyrogen-free solutions were used throughout this assay and all methods which follow. Log phase bacteria were prepared from a culture in brain heart infusion broth as previously described except that bacteria were washed and resuspended in saline with adjustment to an optical density at 650 nm which would yield 3×10^8 CFU/ml. […] Bactericidal activity was determined by dose response and where an LD50 is indicated, it was determined by linear regression.

P. cepacia ATCC 25608 = assay: Bactericidal assay, P. cepacia; type: cell-based, Pseudomonas cepacia; settings: for % Killing of 5 × 10^6 Bacteria / bactericidal activity (in words): P. cepacia; for bactericidal activity (in words): 1.2×10^-4 M, data not shown
Experimental: as §1, §2
(§3) Pyrogen-free solutions were used throughout this assay and all methods which follow. Log phase bacteria were prepared from a culture in brain heart infusion broth as previously described except that bacteria were washed and resuspended in saline with adjustment to an optical density at 650 nm which would yield 3×10^8 CFU/ml. Bacteria were then diluted 1:10 in 0.08M citrate phosphate buffer, pH 5.6 or pH 7.0, for use in the assay. S. aureus rapidly lost viability in the pH 5.6 buffer and was studied only at pH 7.0. Bactericidal activity was determined by dose response and where an LD50 is indicated, it was determined by linear regression.

E. coli 055: B5 LPS = assay: Limulus amoebocyte lysate assay, neutralization of endotoxin; type: biochemical; settings: for Effective Dose Endotoxin Neutralization (Molar Concentration): Table 8, LAL; for neutralization of endotoxin in the LAL (in words): highest concentration tested 4.5×10^-4 M; for peptide concentration which neutralized endotoxin (100% inhibition of LPS-induced gelation): 0.04 endotoxin units of E. coli 055: B5 LPS; for Effective Dose (μg/0.2 ml) / Effective Dose M (× 10^-4): Table 7, dose required to inhibit clotting of LAL by 100%, 0.04 endotoxin units of E. coli LPS
Source text: The peptide selected can also have endotoxin neutralizing activity. […] Endotoxin neutralizing activity can also be measured by calculating an inhibitory dose 50 […] using standard does response methods. An inhibitory dose 50 is that amount of peptide that can inhibit 50% of the activity of endotoxin. Endotoxin activity can also be measured by determining the amount of release of tumor necrosis factor alpha (TNFα) from a macrophage cell line or by evaluating the symptoms of shock in animals. Peptides preferably neutralized endotoxin at a molar concentration of about 1×10^-4 M to about 10^-8 M , more preferably about 10^-5 M to about 10^-6 M .
The ability of synthetic peptides to neutralize endotoxin was detected with the E-TOXATE kit manufactured by Sigma Chemicals, St. Louis, Mo. […] Peptide was incubated with LPS at room temperature for 10 minutes in 100 μl of a 1:2 dilution of pyrogen-free saline, pH 6.4. The reaction was started by addition of 100 μl of amoebocyte lysate and the final volume was 200 μl.
^a The dose of peptide required to inhibit clotting of LAL by 100%.
Each tube contained 0.04 endotoxin units of E. coli LPS.

E. coli B = assay: Bactericidal assay, E. coli B; type: cell-based; settings: for bactericidal activity (in words): 1.2×10^-4 M, data not shown
Experimental: as §1, §2, §3

[2] = test system: Pseudomonas aeruginosa type 1; type: cell-based; settings: pH 5.6
Experimental: Bactericidal activity can be evaluated against a variety of bacteria such as Pseudomonas spp including aeruginosa and P. cepacia, E. coli B, and Staphylococcus aureus. The preferred organism is P. aeruginosa. Bactericidal activity is determined by identifying the effective dose for killing as the molar concentration of the peptide which results in at least a 60% killing of the bacteria, as determined by standard methods. Preferably, the peptide has an effective dose at a concentration of about 1×10^-4 M to about 1×10^-10 M, and more preferably 1×10^-7 M to 1×10^-9M . […] The effective dose for bactericidal activity of B/PI is seen at about […] . Bactericidal activity can also be determined by calculating a lethal dose 50 (LD50) using standard methods. The LD50 is that amount of peptide or protein that kills 50% of the bacteria when measured using standard dose response methods. A bactericidal peptide preferably has an LD50 of about 10^-4 M to about 10^-9 M , more preferably about 10^-7 to 10^-9 M . […]
Pyrogen-free solutions were used throughout this assay and all methods which follow. […] Bactericidal activity was determined by dose response and where an LD50 is indicated, it was determined by linear regression.

[3] = test system: LPS from P. aeruginosa ATCC 27312; assay: Inhibition of bactericidal activity by LPS from P. aeruginosa; type: cell-based; settings: pH 5.6; LPS pre-incubated with peptide 15 minutes; 2.3 μg/ml C#90-99 or 23 μg/ml #90-99; 5×10^6 CFU
[4] = E. coli B, pH 5.6, 3.0 × 10^-5 M

Compound: CC(C)C[C@H](NC(=O)[C@H](Cc1ccccc1)NC(=O)[C@H](CCCNC(=N)N)NC(=O)[C@H](CCCCN)NC(=O)[C@H](CCC(N)=O)NC(=O)[C@H](C)NC(=O)[C@H](CCCCN)NC(=O)[C@H](Cc1c[nH]c2ccccc12)NC(=O)[C@H](CCCCN)NC(=O)[C@@H](N)CS)C(=O)N[C@@H](CCCCN)C(=O)O [Peptide 2, ckwkaqkrflk]
- concentration for killing of S. aureus, times the concentration which killed P. aeruginosa [1]: 20 times
- peptide concentration which killed P. cepacia, times higher than that which killed P. aeruginosa (P. cepacia ATCC 25608): 10 times
- % Killing of 5 × 10^6 Bacteria (P. cepacia ATCC 25608; pH 5.6, 1.5 × 10^-6 M): 0%
- % Killing of 5 × 10^6 Bacteria (P. cepacia ATCC 25608; pH 7.0, 1.5 × 10^-6 M): 0%
- Effective Dose Endotoxin Neutralization (Molar Concentration) (E. coli 055: B5 LPS): -- (not active at concentrations of 4.5 × 10^-4 M or less)
- neutralization of endotoxin in the LAL (in words) (E. coli 055: B5 LPS): did not neutralize endotoxin
- peptide concentration which killed E. coli, times higher than that which killed P. aeruginosa (E. coli B): 10 times
- % Killing of 5 × 10^6 Bacteria (E. coli B; E. coli B, pH 5.6, 1.5 × 10^-5 M, listed as C#90-99): 98 ± 3%
- % Killing of 5 × 10^6 Bacteria (E. coli B; E. coli, pH 5.6, 1.5 × 10^-6 M): 0%
- % Killing of 5 × 10^6 Bacteria (E. coli B; E. coli, pH 7.0, 1.5 × 10^-6 M): 0%
- LD50 for P. aeruginosa, times higher than the LD50 for B/PI [2]: 37.7 times
- LD50 for P. aeruginosa, times lower than the LD50 of peptide #90-99 [2]: 11.8 times
- ID50 of LPS for inhibition of bactericidal activity of the peptide [3]: approximately 21 μg/ml

Compound: CC(C)C[C@H](NC(=O)[C@H](Cc1ccccc1)NC(=O)[C@H](CCCNC(=N)N)NC(=O)[C@H](CCCCN)NC(=O)[C@H](CCC(N)=O)NC(=O)[C@H](C)NC(=O)[C@H](CCCCN)NC(=O)[C@H](Cc1c[nH]c2ccccc12)NC(=O)[C@@H](N)CCCCN)C(=O)N[C@@H](CCCCN)C(=O)O [Peptide 5, kwkaqkrflk]
- peptide concentration required to kill S. aureus, times higher than the effective concentration of C#90-99 ([1]; pH 7.0, not shown): 5 times
- peptide concentration required to kill P. cepacia, times higher than the effective concentration of C#90-99 (P. cepacia ATCC 25608; pH 5.6, not shown): 5 times
- Effective Dose Endotoxin Neutralization (Molar Concentration) (E. coli 055: B5 LPS): -- (not active at concentrations of 4.5 × 10^-4 M or less)
- neutralization of endotoxin in the LAL (in words) (E. coli 055: B5 LPS): did not neutralize endotoxin
- % Killing of 5 × 10^6 Bacteria (E. coli B; E. coli B, pH 5.6, 3.0 × 10^-5 M, listed as #90-99): 31 ± 3%

Compound: CC[C@H](C)[C@H](NC(=O)[C@@H](N)CCCCN)C(=O)N[C@@H](CO)C(=O)NCC(=O)N[C@@H](CCCCN)C(=O)N[C@@H](Cc1c[nH]c2ccccc12)C(=O)N[C@@H](CCCCN)C(=O)N[C@@H](C)C(=O)N[C@@H](CCC(N)=O)C(=O)N[C@@H](CCCCN)C(=O)N[C@@H](CCCNC(=N)N)C(=O)N[C@@H](Cc1ccccc1)C(=O)N[C@@H](CC(C)C)C(=O)N[C@@H](CCCCN)C(=O)O [Peptide 8a, kisgkwkaqkrflk]
- Effective Dose Endotoxin Neutralization (Molar Concentration) (E. coli 055: B5 LPS): -- (not active at concentrations of 4.5 × 10^-4 M or less)
- neutralization of endotoxin in the LAL (in words) (E. coli 055: B5 LPS): did not neutralize endotoxin
- % Killing of 5 × 10^6 Bacteria (E. coli B; [4]): 90 ± 1%

Compound: CC[C@H](C)[C@H](NC(=O)[C@H](CCCCN)NC(=O)[C@@H](N)CS)C(=O)N[C@@H](CO)C(=O)NCC(=O)N[C@@H](CCCCN)C(=O)N[C@@H](Cc1c[nH]c2ccccc12)C(=O)N[C@@H](CCCCN)C(=O)N[C@@H](C)C(=O)N[C@@H](CCC(N)=O)C(=O)N[C@@H](CCCCN)C(=O)N[C@@H](CCCNC(=N)N)C(=O)N[C@@H](Cc1ccccc1)C(=O)N[C@@H](CC(C)C)C(=O)N[C@@H](CCCCN)C(=O)O [Peptide 8b, ckisgkwkaqkrflk]
- Effective Dose Endotoxin Neutralization (Molar Concentration) (E. coli 055: B5 LPS): -- (not active at concentrations of 4.5 × 10^-4 M or less)
- % Killing of 5 × 10^6 Bacteria (E. coli B; E. coli B, pH 5.6, 1.5 × 10^-5 M): 91%

Compound: CSCC[C@H](NC(=O)[C@H](CCCCN)NC(=O)[C@H](CC(C)C)NC(=O)[C@H](Cc1ccccc1)NC(=O)[C@H](CCCNC(=N)N)NC(=O)[C@H](CCCCN)NC(=O)[C@H](CCC(N)=O)NC(=O)[C@H](C)NC(=O)[C@H](CCCCN)NC(=O)[C@H](Cc1c[nH]c2ccccc12)NC(=O)[C@@H](N)CCCCN)C(=O)N[C@@H](CO)C(=O)NCC(=O)O [Peptide 9a, kwkaqkrflkmsg]
- Effective Dose Endotoxin Neutralization (Molar Concentration) (E. coli 055: B5 LPS): -- (not active at concentrations of 4.5 × 10^-4 M or less)
- neutralization of endotoxin in the LAL (in words) (E. coli 055: B5 LPS): did not neutralize endotoxin
- % Killing of 5 × 10^6 Bacteria (E. coli B; [4]): 77 ± 6%

Compound: CNEKLQKGFPL [Peptide 4, cneklqkgfpl]
- % Killing of 5 × 10^6 Bacteria (P. cepacia ATCC 25608; pH 5.6, 1.2 × 10^-4 M): 0%
- % Killing of 5 × 10^6 Bacteria (P. cepacia ATCC 25608; pH 7.0, 1.2 × 10^-4 M): 0%
- peptide concentration which neutralized endotoxin (100% inhibition of LPS-induced gelation) (E. coli 055: B5 LPS): 150 µM
- Effective Dose (μg/0.2 ml) (E. coli 055: B5 LPS): 38 μg/0.2 ml
- Effective Dose M (× 10^-4) (E. coli 055: B5 LPS): 1.5 M (× 10^-4)
- Effective Dose Endotoxin Neutralization (Molar Concentration) (E. coli 055: B5 LPS): 150 µM
- % Killing of 5 × 10^6 Bacteria (E. coli B; E. coli, pH 5.6, 1.2 × 10^-4 M): 0%
- % Killing of 5 × 10^6 Bacteria (E. coli B; E. coli, pH 7.0, 1.2 × 10^-4 M): 0%

Compound: EFYSENHHNPKWKAQKRFLK [Peptide 18, efysenhhnpkwkaqkrflk]
- Effective Dose (μg/0.2 ml) (E. coli 055: B5 LPS): 155 μg/0.2 ml
- Effective Dose M (× 10^-4) (E. coli 055: B5 LPS): 3.0 M (× 10^-4)
- Effective Dose Endotoxin Neutralization (Molar Concentration) (E. coli 055: B5 LPS): 300 µM
- % Killing of 5 × 10^6 Bacteria (E. coli B; E. coli B, pH 5.6, 6.0 × 10^-5 M): 72%

Compound: KELKRIKIPDY [Peptide 6a, kelkrikipdy]
- bactericidal activity (in words) (P. cepacia ATCC 25608): not bactericidal
- Effective Dose Endotoxin Neutralization (Molar Concentration) (E. coli 055: B5 LPS): -- (not active at concentrations of 4.5 × 10^-4 M or less)
- bactericidal activity (in words) (E. coli B; E. coli): not bactericidal

Compound: KKIESALRNKM [Peptide 7a, kkiesalrnkm]
- bactericidal activity (in words) (P. cepacia ATCC 25608): not bactericidal
- peptide concentration which neutralized endotoxin (100% inhibition of LPS-induced gelation) (E. coli 055: B5 LPS): 450 µM
- Effective Dose (μg/0.2 ml) (E. coli 055: B5 LPS): 119 μg/0.2 ml
- Effective Dose M (× 10^-4) (E. coli 055: B5 LPS): 4.5 M (× 10^-4)
- Effective Dose Endotoxin Neutralization (Molar Concentration) (E. coli 055: B5 LPS): 450 µM
- bactericidal activity (in words) (E. coli B; E. coli): not bactericidal

Compound: KLGSNPTSGK [Peptide 10a, klgsnptsgk]
- bactericidal activity (in words) (P. cepacia ATCC 25608): not bactericidal
- Effective Dose Endotoxin Neutralization (Molar Concentration) (E. coli 055: B5 LPS): -- (not active at concentrations of 4.5 × 10^-4 M or less)
- bactericidal activity (in words) (E. coli B; E. coli): not bactericidal

Compound: MRENMARGPC [Peptide 1, mrenmargpc]
- Effective Dose Endotoxin Neutralization (Molar Concentration) (E. coli 055: B5 LPS): -- (not active at concentrations of 4.5 × 10^-4 M or less)

Compound: VNPGVVVRISQKGLDYASQQGTAALQ [Peptide 11, vnpgvvvrisqkgldyasqqgtaalq]
- Effective Dose Endotoxin Neutralization (Molar Concentration) (E. coli 055: B5 LPS): 75 µM
